About 200 (0.062%) of roughly 320,000 compounds were called active. Inconclusive results, whose numbers are uncertain, are shown with a selection of clear calls. Calls follow the shape of the dose curve; as a rule, active = well fitted activation curve with a large enough effect; inconclusive = small, poorly fitted or top-dose-only effect; inactive = no such curve, though single readings can be large or run the other way. Potencies of inconclusive entries are left out as doubtful fits.
Assay: qHTS assay for re-activators of p53 using a Luc reporter; also: nearly all actives have a fitted effect of over 45% in size; as to activity change, positive = activation: % of control where 0% means no effect
Conditions: H1299 p53-A138V BP100-luciferase reporter, luminescence, 24 h; series mostly up to 92.2 µM; activity change, positive = activation: at the top concentration
How it was run: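 p53-null H1299 cells stably carrying temperature-sensitive p53-A138V and a BP100-luciferase reporter were pinned with compounds (4-point, 1:5 series) and held 24 hrs at 37 deg C. Luminescence was read 10 min after detection reagent.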
Potency is read from the fitted curve at half-maximal effect; tags tell the direction and shape of the fitted curve.

| SMILES | activity change, positive = activation | Potency |
| --- | --- | --- |
| Cn1c(=O)oc2cc(S(=O)(=O)N3CCCC(C(=O)NCc4ccc5c(c4)OCO5)C3)ccc21 (stereo not drawn) | inactive: 1.62% |  |
| O=C1CC(c2ccccc2)=Nc2ccc(Br)cc2N1 | inactive: -0.65% |  |
| CC(C)c1[nH]nc2c1C(C(C)C)C(C#N)=C(N)O2 (stereo not drawn) |  | inconclusive [activator, single point] |
| O=C(Nc1ccc(F)cc1Cl)c1ccc2c(=O)n3c(nc2c1)CCC3 |  | inconclusive [activator, full curve, poor fit] |
| Cc1ccc(S(=O)(=O)N2CCN(C(=O)c3ccc4ccccc4n3)CC2)c(C)c1 |  | inconclusive [activator, full curve, poor fit] |
| Cc1ccc(OCCC(=O)Nc2ccc3c(c2)OCCCO3)cc1 |  | inconclusive [activator, partial curve, poor fit] |
| CC(=O)Nc1ccc(C(=O)COC(=O)C2CCCCC2)c(F)c1 | inactive: 13.3% |  |
| CCc1cc2c(Sc3nc4ccccc4s3)ncnc2s1 |  | inconclusive [activator, single point] |
| O=[N+]([O-])c1ccc(Cl)c(NC(=S)N2CCCC2)c1 |  | inconclusive [activator, partial curve, poor fit] |
| O=C(COc1ccc(Cl)cc1Cl)c1ccc[nH]1 |  | inconclusive [activator, partial curve, poor fit] |
| CCCCN=C1NN=C(c2cc3ccccc3o2)CS1 |  | inconclusive [activator, partial curve, poor fit] |
| O=Cc1cc(N=Nc2ccccc2Cl)ccc1O |  | inconclusive [activator, partial curve, poor fit] |
| O=C(NC(=S)Nc1ccccc1Br)C1CCCCC1 |  | inconclusive [activator, partial curve, poor fit] |
| O=C(CCNC(=O)c1ccccc1)Nc1nc2ccccc2s1 |  | inconclusive [activator, full curve, poor fit] |
| O=c1nc2ccc(Cl)cn2c2ccc(S(=O)(=O)N3CCCCC3)cc12 |  | inconclusive [activator, partial curve, poor fit] |
| O=C(O)CCN1C(=O)/C(=C/c2ccc(-c3nc4ccccc4s3)o2)SC1=S |  | inconclusive [activator, partial curve, poor fit] |
| Cc1[nH]n(-c2nc(-c3cccc([N+](=O)[O-])c3)cs2)c(=O)c1C |  | inconclusive [activator, partial curve, poor fit] |
| CCOc1ccc(-c2nnc(N)s2)cc1 |  | inconclusive [activator, partial curve, poor fit] |
| C=C(C)Cn1c(C(C)NC(=O)CCC)nc2ccccc21 (stereo not drawn) |  | inconclusive [activator, single point] |
| CC(C)C(=O)Nc1cccc(C(=O)Nc2nnc(C(C)C)s2)c1 |  | inconclusive [activator, partial curve, poor fit] |
| CC(Cc1ccco1)NC(=O)c1cccc(S(=O)(=O)N(C)C)c1 (stereo not drawn) |  | inconclusive [activator, single point] |
| O=S(=O)(Nc1cccc(CCc2ccccn2)c1)c1ccc2ccccc2c1 | inactive: -2.5% |  |
| Clc1ccc2[nH]c3c(c2c1)CCc1cn[nH]c1-3 |  | inconclusive [activator, partial curve, poor fit] |

| SMILES | activity change, positive = activation | Potency |
| --- | --- | --- |
| O=C(c1cc(-c2cccs2)on1)N1CCc2ccccc2C1 |  | inconclusive [activator, partial curve, poor fit] |
| COc1ccc(-c2cn3cccnc3n2)cc1Br |  | inconclusive [activator, partial curve, poor fit] |
| Cc1nn(-c2ccccc2)c2sc(C(=O)N3CCOCC3)cc12 |  | inconclusive [activator, partial curve, poor fit] |
| O=C1c2ccccc2NC(c2ccc(O)cc2)N1c1ccccc1 (stereo not drawn) |  | inconclusive [activator, partial curve, poor fit] |
| CCC(=O)NCCc1nc2cc(NC(=O)c3ccccc3OC)ccc2n1C |  | inconclusive [activator, partial curve, poor fit] |
| O=C1CN(c2ccccc2)C(=S)N1C(=O)c1ccccc1 | inactive: 9.96% |  |
| Cc1ccc2nc(-c3ccc(NC(=O)COC(=O)c4cncc(Br)c4)cc3)sc2c1 |  | inconclusive [activator, full curve, poor fit] |
| O=C1NC(=O)/C(=C/c2cccc3ccccc23)S1 |  | inconclusive [activator, partial curve, poor fit] |
| CSc1ccc(-c2nnn(Cc3ccc(C)cc3)n2)cc1 |  | inconclusive [activator, single point] |
| CCOC(=O)C1(CCCc2ccccc2)CCN(Cc2cn(CC)nc2C)CC1 | inactive: 2.53% |  |
| Cc1ccc(NC(=S)NCCC2=CCCCC2)cc1 |  | inconclusive [activator, partial curve, poor fit] |
| N#Cc1cccc(C(=O)Nc2ccc(S(=O)(=O)Nc3nccs3)cc2)c1 | inactive: 5.23% |  |
| CC(C)(C)c1ccc(C(=O)Nc2ccc([N+](=O)[O-])cn2)cc1 | inactive: 46.3% |  |
| COCCOC(=O)c1[nH]c2c(c1C)C(=O)C(C(=O)OC)C(C)C2 (stereo not drawn) |  | inconclusive [activator, partial curve, poor fit] |
| Cc1nc2ccc(-c3ccccc3)cc2o1 |  | inconclusive [activator, single point] |
| CC1=CC(=O)C(C(C)C)=C/C1=N/OC(=O)c1cccc([N+](=O)[O-])c1 | inactive: -8.08% |  |
| Cn1cc([N+](=O)[O-])c(C(=O)Nc2nccs2)n1 | inactive: -10.4% |  |
| COc1ccccc1CCNC(=O)C1CCC(=O)N(Cc2ccccc2OC)C1 (stereo not drawn) | inactive: -6.18% |  |
| O=C(COc1ccc2ccccc2c1)Nc1ccccc1C(=O)O |  | inconclusive [activator, partial curve, poor fit] |
| Cc1ccc(Nc2ncnc3nc[nH]c23)cc1Cl |  | inconclusive [activator, full curve, poor fit] |
| CCN(CC(=O)Nc1ccc(NC(C)=O)cc1)C(=O)c1cc2ccccc2oc1=O | inactive: -2.23% |  |
| COc1ccc2cc(-c3[nH]ncc3CN3CCCCO3)ccc2c1 |  | inconclusive [activator, partial curve, poor fit] |
| C/C(Cn1nnc([N+](=O)[O-])n1)=N\NC(=O)c1ccccc1O | inactive: 12.5% |  |

| SMILES | activity change, positive = activation | Potency |
| --- | --- | --- |
| CNc1cc(CSC)nc(SCc2ccc(Cl)c(Cl)c2)n1 | inactive: 0.0174% |  |
| O=C(COC(=O)CCCN1C(=O)c2cccc3cccc(c23)C1=O)Nc1cccc(Br)c1 | inactive: -2.11% |  |
| COc1cc(OC)c2c(-c3cccc(/C=C/c4ccc(F)cc4)c3)cc(=O)oc2c1 |  | inconclusive [activator, partial curve, poor fit] |
| COCc1ccc(-c2c(-c3ccc(OC)cc3)oc(=O)c3cc(OC)c(OC)cc23)cc1 |  | inconclusive [activator, single point] |
| COc1ccc(C(=O)C[n+]2cn(C(F)F)c3ccccc32)c(F)c1 |  | inconclusive [activator, partial curve, poor fit] |
| COc1ccc(S(=O)(=O)N2CCCC(C(=O)Nc3ccc(NC(=O)c4ccccn4)cc3)C2)cc1 (stereo not drawn) |  | inconclusive [activator, partial curve, poor fit] |
| CN(c1ccccc1)c1ccc(/C=N/N2CCOCC2)cc1 |  | inconclusive [activator, partial curve, poor fit] |
| c1coc(-c2nnc(NC3=NCCC3)o2)c1 |  | inconclusive [activator, full curve, poor fit] |
| O=C1CCCC(O)=C1N=Nc1c(Cl)cc(Cl)cc1Cl |  | inconclusive [activator, full curve, poor fit] |
| COc1ccccc1CNC(=O)C1CCN(Cc2nc(-c3cccc(Cl)c3)oc2C)CC1 |  | inconclusive [activator, single point] |
| CCOC(=O)C(=Cc1c[nH]c2ccc(S(=O)(=O)N(C)C)cc12)C(=O)OCC |  | inconclusive [activator, single point] |
| COc1ccc2c(c1)OC[C@H]1[C@H]2N2C(=O)c3cc(OC)ccc3NC(=O)[C@@]2(C)[C@H]1c1ccccc1 | inactive: -11.4% |  |
| COc1cccc(/C=N/NC(=O)c2cnccn2)c1O |  | inconclusive [activator, single point] |
| Cc1cc(C(=O)COC(=O)C2=NNC(=O)CC2)c(C)n1-c1ccccc1 | inactive: 2.1% |  |
| O=C(CCCc1ccccc1)c1ccccc1 |  | inconclusive [activator, partial curve, poor fit] |
| CCCn1nc(NC(=O)C2CCCO2)c2cc3ccc(C)cc3nc21 (stereo not drawn) | inactive: -6.36% |  |
| O=C(Cc1cccs1)NNC(=S)NCc1ccco1 | inactive: 3.97% |  |
| Clc1ccc(-c2nnc(CSc3nnc(-c4cccs4)n3Cc3ccccc3)o2)cc1 | inactive: -1.43% |  |
| O=[N+]([O-])c1ccc(Cc2nnc(-c3ccc(F)cc3)o2)cc1 |  | inconclusive [activator, partial curve, poor fit] |
| c1coc(C2Nc3ccccc3-c3nc4ccccc4n32)c1 (stereo not drawn) |  | inconclusive [activator, partial curve] |
| O=C(CN1CCCCC1)Nc1scc2c1c(=O)oc1ccccc12 | inactive: 2.02% |  |
| Cc1ccc(Nc2ccc(NCc3ccccc3)nn2)cc1C |  | inconclusive [activator, partial curve, poor fit] |
